Experimental data: publication PMC4336329 (PLoS ONE, 2015)
Hit rate of the full screen: of about 310,000 compounds, about 2,200 (0.71%) showed an effect of 50% or more. The effect is printed as a negative number. Some of the results follow.

Molecular target: human ether-à-go-go-related gene (hERG) potassium channel (human, UniProt Q12809)
Experiment: primary screen, population patch clamp on CHO cells stably expressing hERG

human ether-à-go-go-related gene (hERG) potassium channel, sequence (Q12809 whole entry, looked up): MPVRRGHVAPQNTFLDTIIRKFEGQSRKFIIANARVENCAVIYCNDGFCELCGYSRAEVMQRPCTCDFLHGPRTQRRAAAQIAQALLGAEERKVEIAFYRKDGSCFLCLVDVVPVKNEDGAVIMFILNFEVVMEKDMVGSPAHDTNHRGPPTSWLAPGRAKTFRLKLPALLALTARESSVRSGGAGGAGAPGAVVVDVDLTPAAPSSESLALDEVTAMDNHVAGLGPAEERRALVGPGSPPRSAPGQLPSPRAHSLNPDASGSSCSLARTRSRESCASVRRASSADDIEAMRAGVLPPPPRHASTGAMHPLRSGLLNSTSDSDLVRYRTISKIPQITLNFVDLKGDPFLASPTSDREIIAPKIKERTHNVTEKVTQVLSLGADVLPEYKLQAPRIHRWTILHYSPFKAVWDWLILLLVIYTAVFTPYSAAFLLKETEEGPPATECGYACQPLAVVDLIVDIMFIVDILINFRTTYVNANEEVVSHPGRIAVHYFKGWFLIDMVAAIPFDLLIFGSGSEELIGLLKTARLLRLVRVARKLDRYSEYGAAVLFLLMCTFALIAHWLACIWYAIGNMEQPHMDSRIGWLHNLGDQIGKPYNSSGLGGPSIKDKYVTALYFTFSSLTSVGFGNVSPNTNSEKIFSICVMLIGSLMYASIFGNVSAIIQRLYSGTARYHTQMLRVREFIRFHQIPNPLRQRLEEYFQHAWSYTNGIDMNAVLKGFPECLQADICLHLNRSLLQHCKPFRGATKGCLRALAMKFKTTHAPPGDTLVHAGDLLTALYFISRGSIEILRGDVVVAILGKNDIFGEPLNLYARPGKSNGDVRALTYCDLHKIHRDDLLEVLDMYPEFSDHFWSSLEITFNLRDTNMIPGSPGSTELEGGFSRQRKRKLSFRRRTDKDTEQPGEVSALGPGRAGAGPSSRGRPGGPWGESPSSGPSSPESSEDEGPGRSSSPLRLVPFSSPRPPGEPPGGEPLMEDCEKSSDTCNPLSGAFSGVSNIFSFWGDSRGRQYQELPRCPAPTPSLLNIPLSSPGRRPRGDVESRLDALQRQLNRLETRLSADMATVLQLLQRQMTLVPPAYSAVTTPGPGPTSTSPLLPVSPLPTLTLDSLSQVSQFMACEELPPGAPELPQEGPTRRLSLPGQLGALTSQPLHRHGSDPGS

SMILES	hERG current change (%, negative = inhibition) at 1uM [%]
O=C(NCc1ccccc1)c1cccc(S(=O)(=O)NCc2ccccc2)c1	6.18
Cc1ccccc1OCc1nnc(SCC(=O)NC2CCCCC2)o1	1.81
N#CC1=C(N)OC2=C(C(=O)CCC2)C1c1ccoc1 (stereo not shown)	9.36
CCOc1ccc(-c2nc(CSc3nncs3)cs2)cc1OC	-0.186
CC1(C)C/C(=C(/C#N)C(N)=O)CCO1	15.2
CCCNC(=O)Cn1c(=O)n(C)c2ccccc21	10.9
CC(CNS(=O)(=O)c1ccccc1)Sc1nncn1C (stereo not shown)	20.8
COc1ccc(C(=O)N2CCN(c3ccc(C)cc3C)CC2)cc1OC	-13.8
CC1CN(CC(=O)Nc2cc(S(=O)(=O)N3CCCC3)ccc2Cl)CC(C)O1 (stereo not shown)	10.8
CC(C)OC(=O)/C(C#N)=C\c1cccnc1	14.3
Cc1ccc(C(=O)Nc2ccc(NC(=O)c3ccc(C)o3)cc2)o1	7.55
O=C(NCCCN1CCOCC1)c1ccc(Sc2cccc(Cl)c2)c([N+](=O)[O-])c1	8.39
Clc1ccc(C2Nc3ccccc3-n3cccc32)cc1 (stereo not shown)	11.1
Cn1c(O)c(N=NC(=O)c2ccccc2O)c2ccccc21	6.95
CSCCNC(=O)c1ccc2nc(Cc3ccccc3F)oc2c1	15.1
CCOc1ccc(NC(=O)CN(C)C(=O)/C=C/c2ccco2)cc1OCC	-14.3
C=C(C)COc1ccc(-c2[nH]ncc2Oc2ccccc2OC)c(O)c1	-27.4
CCOc1ccc(-n2c(O)c(/C=N/Nc3nc(C)cc(C)n3)c3ccccc3c2=O)cc1	1.4
COc1ccccc1NC(=O)CN(Cc1ccco1)C(=O)c1ccc(=O)[nH]c1	9.78
O=C(CN1CCOCC1)Nc1nc(-c2ccc(Cl)cc2)cs1	-1.22
COc1ccc(/C=C/C(=O)c2cc3c(cc2N)OCO3)cc1	10.4
CCOC(=O)C1=C(N)n2c(s/c(=C\c3ccco3)c2=O)=C(C(=O)OCC)C1c1ccco1 (stereo not shown)	-4.35
CNS(=O)(=O)c1cn(CC(=O)NCc2cccc(OC)c2)cc1S(=O)(=O)NC	2.52

SMILES	hERG current change (%, negative = inhibition) at 1uM [%]
O=C(N/N=C/c1ccccn1)c1ccco1	13
CC(C(=O)N1CCOCC1)N1C(=O)c2ccccc2C1=O (stereo not shown)	12.3
COc1ccc(CC2C(=O)NC(=O)NC2=O)c(OC)c1	9.38
COCCn1c(=NC(=O)c2cc(Cl)sc2Cl)sc2cc(S(N)(=O)=O)ccc21	12.4
Cc1cccc(Oc2coc3cc(OC(=O)c4cc5ccccc5oc4=O)ccc3c2=O)c1	-6.09
Cc1cc(OCC(=O)NCCCn2ccnc2)c2c(C)cc(=O)oc2c1	14.7
CCc1ccc(/C=C2/SC(=S)N(CCC(=O)Nc3cccc(C(=O)O)c3)C2=O)cc1	0.872
Cc1ccc2[nH]c(=O)c(C3=NN(C(=O)CCC(=O)O)C(c4cccs4)C3)c(-c3ccccc3)c2c1 (stereo not shown)	24.3
COc1ccc(S(=O)(=O)NCc2ccc(C(=O)O)cc2)cc1	4.92
Cc1cc2oc(=O)c3c(c2cc1OCc1nn[nH]n1)CCCC3	2.45
CC(C)(C)c1cc(C(C)(C)C)n(-c2ccccc2)n1	6.91
CN1CCc2c(sc3nc(SCC(=O)N4CCCCC4)n(-c4ccccc4)c(=O)c23)C1	13.9
CC(C)(C#CCN1CCCC1)OCCC#N	15.1
COC(=O)c1ccc(COc2ccccc2/C=C(\C#N)C(=O)Nc2ccccc2C)cc1	3.15
O=S(Cc1ccc(Cl)cc1)CC(O)(c1ccccc1)c1ccccc1 (stereo not shown)	6.65
Nc1nc(Nc2cccc(F)c2)nc(NCc2ccco2)c1[N+](=O)[O-]	10.6
CC(=O)c1cccc(OCc2cc(C(=O)N3C[C@@H](C)O[C@@H](C)C3)no2)c1	13.3
O=C(c1cccc(Cl)c1)N(Cc1cccs1)C1CCS(=O)(=O)C1 (stereo not shown)	-0.295
O=[N+]([O-])c1ccc(S(=O)(=O)NNC(=S)NCCc2ccccc2)cc1	2.93
N#CC1CCN(c2ncccc2[N+](=O)[O-])CC1	24.1
O=C(O)CCCC(=O)N1CCCC1	14
Nc1cccc(-c2ccc(CO)o2)c1	8.75
CCCCN(C(=O)CSc1nnc(-c2ccc(OC)cc2)n1C(C)C)c1c(N)n(Cc2ccccc2)c(=O)[nH]c1=O	-2.9

SMILES	hERG current change (%, negative = inhibition) at 1uM [%]
CCCCc1ccc(NC(=S)NCc2ccc(OC)cc2)cc1	0.183
COc1ccc(NC(=O)CSc2nc(C)c3c(c2C#N)CCCC3)cc1	10.1
Oc1ccccc1C1=NOC(O)(C(F)F)C1 (stereo not shown)	3.4
COc1cc(OC)cc(C(=O)Nc2ccc3nc4n(c(=O)c3c2)CCCCC4)c1	-1.21
C=CCN(c1ccccc1)S(=O)(=O)c1ccc2c(c1)NC(=O)C(C)C(=O)N2 (stereo not shown)	13.6
C=C(C)CN(CC)C(=O)CC1C(=O)NCCN1Cc1c(F)cccc1Cl (stereo not shown)	14.3
Cc1nn(C)cc1CNC(=O)COc1ccc(Cl)cc1Cl	8.82
Cc1ccn2c(=O)c(C(=O)NCCN3CCOCC3)c(O)nc2c1	18.8
CC(=O)Nc1ccc(S(=O)(=O)n2cnc(C)c2)cc1	-8.9
CC(=O)Oc1ccc(-c2cccc(C(=O)OCC(=O)Nc3ccccc3Oc3ccccc3)c2)cc1	7.3
Cc1ccc(N2C(=O)C3CCCN3C2=S)c(C)c1 (stereo not shown)	17.5
Cc1ccc(CN2C(=O)CCC2C(=O)NCC2CCCO2)cc1 (stereo not shown)	3.33
CCCNNC(=O)C(O)(c1cccc(C)c1)c1cccc(C)c1	8.76
O=P1(NC2CCCC2)COc2ccccc2OC1	7.09
Cc1cc(C)c(C)c(N=Nc2nc3ccccc3n2C)c1C	6.18
CCOC(=O)c1sc(NC(=O)CCCn2nc([N+](=O)[O-])cc2C)c(C(=O)OCC)c1C	1.73
C=CCNC(=O)/C(C#N)=C/c1ccccc1OCc1ccc(C(=O)OC)cc1	-3.67
CC(C)NC(=O)c1nn2c(C(F)(F)F)cc(-c3ccco3)nc2c1Cl	12.5
COC(=O)Cc1c(C)c2ccc(OCC(=O)N(C)C3CCS(=O)(=O)C3)cc2oc1=O (stereo not shown)	18.4
O=C1CN(S(=O)(=O)c2ccc(F)cc2)c2ccccc2N1	0.33
S=C(NN=C1CCN(Cc2ccccc2)CC1)NC1CCCCC1	7.39
O=C(Nc1ncccn1)c1cccc(F)c1	0.714
CN1C[C@H](CNC(=O)OCc2ccccc2)C[C@@H]2c3cccc4c3c(cn4C)C[C@H]21	-1.63

SMILES	hERG current change (%, negative = inhibition) at 1uM [%]
C/C(=N\NC(=O)c1ccncc1)c1cccc(NC(=O)c2ccc(Cl)s2)c1	4.44
Cc1cc(C(=O)NC(C)C2CCCO2)cs1 (stereo not shown)	4.23
CCc1ccc(C(=O)Nc2ccc3nc(C)ccc3c2)cc1	10.3
COc1ccc(NC(=O)N2CCN(S(=O)(=O)c3ccc(F)cc3)CC2)c(OC)c1	8.34
CC(C)Sc1nc2ccccc2n2cnnc12	13.3
Cc1ccc2c(c1)CCCN2C(=O)C1CCCO1 (stereo not shown)	15.3
CCN(c1ccccc1)S(=O)(=O)c1ccc2[nH]c(=O)c(=O)[nH]c2c1	8.57
COc1ccc2oc(=Nc3ccccc3)c(-c3nc4ccccc4[nH]3)cc2c1	18.1
c1ccc2sc(SCc3ccc(-c4nnco4)cc3)nc2c1	6.03
COc1ccccc1NS(=O)(=O)c1cc(NC(=O)CNC(=O)c2ccccc2)ccc1C	14.4
O=C(Cc1cc(=O)[nH][nH]1)N/N=C/c1cccc(Cl)c1Cl	7.82
Cc1noc(C)c1CSc1nc2ccccc2n1CCc1ccccc1	-6.26
CN(CCS(=O)(=O)c1ccc(Cl)cc1)Cc1cccnc1	11.5
CC1CCCCC12NC(=O)N(CC(=O)Nc1ccc(S(=O)(=O)N3CCOCC3)cc1)C2=O (stereo not shown)	-3.77
Cc1[nH]nc(SCC(=O)N2CCOCC2)c1[N+](=O)[O-]	11.7
NS(=O)(=O)c1ccc(N/N=C/c2ccncc2)cc1	17.1
CC(Sc1nnc(C2CC2)n1C1CC1)C(=O)N(C)Cc1cccc(F)c1 (stereo not shown)	-2.8
Cc1cc(N=Cc2c(O)ccc3ccccc23)no1	2.62
COc1ccccc1N1CCN(C(=O)Cn2c(=O)oc3cc(S(=O)(=O)N4CCCC4)ccc32)CC1	9.66
C=CCNC(=O)C1CC(=O)N(c2ccc(Br)cc2)C1 (stereo not shown)	4.58
COc1ccc(OC)c(S(=O)(=O)Nc2ccc(C(N)=O)cc2)c1	9.88
O=C1OCCC1Sc1nnc(-c2ccco2)o1 (stereo not shown)	13.7
